# Test results taken from publication PMC4336329 (PLoS ONE, 2015).
# The whole screen tested about 310,000 compounds, of which about 2,200 (0.71%) showed an effect of 50% or more. Effects have a minus sign here. This is one part of the list.
# Target: human ether-à-go-go-related gene (hERG) potassium channel (human, UniProt Q12809)
# Test: primary screen, population patch clamp on CHO cells stably expressing hERG
# Chain of human ether-à-go-go-related gene (hERG) potassium channel (Q12809 whole entry, looked up): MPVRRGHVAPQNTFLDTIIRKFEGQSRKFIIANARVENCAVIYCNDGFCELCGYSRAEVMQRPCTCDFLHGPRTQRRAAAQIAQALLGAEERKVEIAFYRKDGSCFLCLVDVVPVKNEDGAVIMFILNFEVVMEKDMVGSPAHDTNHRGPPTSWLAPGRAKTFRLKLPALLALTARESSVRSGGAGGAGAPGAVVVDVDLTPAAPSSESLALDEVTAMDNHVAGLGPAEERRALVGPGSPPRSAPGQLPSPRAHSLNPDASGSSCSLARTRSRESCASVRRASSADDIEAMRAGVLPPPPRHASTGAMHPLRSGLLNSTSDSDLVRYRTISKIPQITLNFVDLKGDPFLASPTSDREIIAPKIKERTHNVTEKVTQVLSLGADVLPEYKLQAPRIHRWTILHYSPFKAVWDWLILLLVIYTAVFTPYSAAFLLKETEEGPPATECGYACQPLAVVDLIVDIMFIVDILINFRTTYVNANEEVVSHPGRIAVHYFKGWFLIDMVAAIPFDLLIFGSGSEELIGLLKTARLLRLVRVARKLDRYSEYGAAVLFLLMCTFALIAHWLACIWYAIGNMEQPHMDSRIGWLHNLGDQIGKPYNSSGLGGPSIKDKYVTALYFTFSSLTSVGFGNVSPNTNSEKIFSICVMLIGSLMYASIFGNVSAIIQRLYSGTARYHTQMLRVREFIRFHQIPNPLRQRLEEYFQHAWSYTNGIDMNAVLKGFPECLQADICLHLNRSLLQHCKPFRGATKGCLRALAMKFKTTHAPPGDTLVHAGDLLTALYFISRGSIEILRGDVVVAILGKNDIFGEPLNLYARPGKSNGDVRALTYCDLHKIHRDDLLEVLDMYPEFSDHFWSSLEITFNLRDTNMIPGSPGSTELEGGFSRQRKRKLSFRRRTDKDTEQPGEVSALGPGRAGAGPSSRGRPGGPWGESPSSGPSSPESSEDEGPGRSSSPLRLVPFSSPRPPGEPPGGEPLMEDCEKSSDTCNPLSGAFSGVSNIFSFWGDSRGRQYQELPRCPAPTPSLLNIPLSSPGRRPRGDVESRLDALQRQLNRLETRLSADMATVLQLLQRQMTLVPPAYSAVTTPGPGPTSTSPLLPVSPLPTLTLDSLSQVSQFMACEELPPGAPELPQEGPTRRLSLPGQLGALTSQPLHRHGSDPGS
row,Compound,"hERG current change (%, negative = inhibition) at 1uM [%]"
1,Cc1ccc(CNC(=O)CCS(=O)(=O)c2ccc3c(c2)NC(=O)C(C)S3)cc1 (centres unmarked),14.7
2,CN1CCN(NC(=O)/C=C/c2cccc(Cl)c2)CC1,9.72
3,O=C1NN(c2ccc(F)c(Cl)c2)C(=O)/C1=C\c1cccc(OC(=O)c2cccs2)c1,7.88
4,Cc1cccc(/C=C/c2onc(C)c2S(=O)(=O)N2CCC(C(=O)NC(C)C)CC2)c1,-1.56
5,COc1cc(C2C(C#N)=C(N)Oc3c2c(-c2ccccc2)nn3-c2ccccc2)cc(OC)c1OC (centres unmarked),-9.81
6,O=C(CCCn1c(=S)[nH]c2cc3c(cc2c1=O)OCO3)N1CCc2ccccc2C1,5.44
7,CCc1ccc(NC(=S)N2CCN(c3cccc(C(F)(F)F)c3)CC2)cc1,5.18
8,CC1CCN(C(=O)c2ccc3c(Cl)c4c(nc3c2)CCCC4)CC1,5.91
9,O=C(Cn1cc(C(F)(F)F)cc(Cl)c1=O)NCc1ccccc1,19.7
10,Cc1cc(C)nc(/N=C2\NC(=O)CC3C(=O)NCCN23)n1 (centres unmarked),13.1
11,COC(=O)CSc1nnc(-c2cccnc2)o1,16.7
12,CCOc1ccc(NC(=O)NC(C)CC)cc1 (centres unmarked),12.4
13,Cc1noc(C)c1C(=O)N(CC(C)C)c1nc2ccccc2s1,7.73
14,Cc1ccccc1Cn1cc(NC(=O)c2noc3c2CC(C(C)(C)C)CC3)cn1 (centres unmarked),5.76
15,C=C1[C@H]2C[C@H]3[C@H]4N5C[C@]6(C)CCC[C@]47[C@H]([C@H]2O)[C@]3(C[C@]5(O)[C@H]67)[C@@H]1O,9.03
16,O=C1NC(=O)N(Cc2ccc(F)cc2)C(=O)/C1=C\c1ccoc1,10.4
17,S=c1[nH]c2cc(Cl)c3cccnc3c2o1,17.6
18,CN1CCN(C(=O)C2=C[C@H](C(C)(C)C)C[C@H](OCCCCO)O2)CC1,5.72
19,COc1cc(/C=N/n2cnnc2)ccc1OC(=O)c1cccnc1,7.19
20,CC(C)N1CCN(C2CSCCSC2)CC1CCO (centres unmarked),7.25
21,ClCC1CN(Cc2ccccc2Cl)CCO1 (centres unmarked),14.1
22,Nc1c(C(=O)Nc2nccs2)sc2nc(-c3cccs3)cc(C(F)(F)F)c12,17.2

row,Compound,"hERG current change (%, negative = inhibition) at 1uM [%]"
1,CCOC(=O)C1=C(C)N(c2ccccc2)C(=O)NC1c1cccc([N+](=O)[O-])c1 (centres unmarked),-5.01
2,CCOc1ccc(C(=O)C[n+]2cccc3cc(C)ccc32)cc1.[Br-],6.54
3,CCOC(=O)CSc1nc2c(c(=O)[nH]c(=O)n2C)n1Cc1ccccc1,-0.8
4,O=C(Nc1ccc(Oc2ccccc2)cc1)C1CCCO1 (centres unmarked),5.59
5,NC(=O)[C@H]1CC2(CC(c3cccc(NC(=O)COc4ccc(Cl)cc4)c3)=NO2)CN1C(=O)c1ccc(Cl)cc1 (some centres unmarked),6.47
6,CCOC(=O)CSc1nc(N)nc(C)c1Br,-3.35
7,CCOC(=O)N1CC=C2C(C#N)=C(N)C(C#N)(C#N)[C@H](c3ccsc3)[C@H]2C1,11.7
8,CCN1C(=O)/C(=C\c2nc3ccccc3c(=O)n2CC)c2ccccc21,4.8
9,CCOC(=O)N1CCN(C(=O)C(CC(C)C)NS(=O)(=O)c2ccc3c(c2)oc(=O)n3C)CC1 (centres unmarked),-2.28
10,COc1ccc(CCC(=O)N(C)CC(=O)Nc2ccc(Cl)c(C(F)(F)F)c2)cc1,21.5
11,COc1ccc(N2CC(C(=O)Nc3ccc(S(=O)(=O)N4CCCC4)cc3)CC2=O)cc1 (centres unmarked),10.6
12,O=c1[nH]c2ccccc2cc1CN(Cc1cccnc1)S(=O)(=O)c1ccc([N+](=O)[O-])cc1,-5.07
13,COc1ccccc1N1CCN(CC(=O)c2c(C)[nH]c3cc(C)ccc23)CC1,14.3
14,Cc1cccc(Oc2ccc(NC(=O)C3CC=CCC3C(=O)O)cc2)c1 (centres unmarked),10.5
15,O=C1CC(N(Cc2ccc3c(c2)OCO3)C(=O)Nc2ccc(F)cc2)C(=O)N1c1ccccc1 (centres unmarked),8.79
16,CCOC(=O)c1oc2ccccc2c1NC(=O)CCl,9.91
17,Cc1ccc(/C=C2\C(=O)ON=C2c2ccccc2)o1,13.3
18,Cc1ccc(NC(=O)C2COc3ccccc3O2)cc1S(=O)(=O)N1CCOCC1 (centres unmarked),3.14
19,CCc1ccc(CNC(=O)Cn2nc(-c3ccccc3)ccc2=O)cc1,8.46
20,COc1ccc(CCNc2ncnc3nc[nH]c23)cc1OC,6.4
21,O=C(COc1ccc2ccccc2c1)Nc1ccc(Cc2ccncc2)cc1,13
22,O=c1c(Cl)c(NCc2ccccc2)cnn1C12CC3CC(CC(C3)C1)C2,-5.22
